Over roughly 33,000 sequences, “E-score (-0.5 to 0.5)” has its median near -0.017; the highest 2% begin near 0.3. This is one part of the list.

This assay addresses T1, Sut1 (UniProt P53032).
T1 sequence: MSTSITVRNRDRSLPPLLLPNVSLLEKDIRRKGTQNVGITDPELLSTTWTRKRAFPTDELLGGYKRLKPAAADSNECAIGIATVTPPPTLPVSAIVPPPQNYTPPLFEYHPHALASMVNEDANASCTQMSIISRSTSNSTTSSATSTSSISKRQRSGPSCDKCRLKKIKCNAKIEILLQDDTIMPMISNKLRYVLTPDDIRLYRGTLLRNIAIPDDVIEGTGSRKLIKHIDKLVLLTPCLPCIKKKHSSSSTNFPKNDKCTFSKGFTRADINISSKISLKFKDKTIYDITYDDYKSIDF
In words: PBM E-score (8-mer binding enrichment) (E-score (-0.5 to 0.5)); higher = stronger / more preferred TF binding; most listed sequences are background and not binding sites. As to conditions: protein concentration: 200 nM; construct: GST-full length. The method in brief: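 Using PURExpress in vitro transcription/translation, GST-tagged yeast transcription factors were made in full-length or DNA-binding-domain form. These were applied at about 100-200 nM to double-stranded universal all-10-mer Agilent arrays, and bound protein was detected with fluorescent anti-GST. Scans were normalised with masliner before the Universal PBM Analysis Suite assigned E-scores to ungapped eight-base words pooled with their reverse complements.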
Turning to CAGACCGA, the “PBM E-score” value is -0.102.
In the case of GCCACAAA, the “PBM E-score” value was -0.0017.
In the case of ACGAATCT it was -0.104; in that of CGATTCAA, -0.015; in that of AGGATATC, -0.0305.
As for ATAGTCAC, the “PBM E-score” value was 0.0579.
For AGTGTCCG the value was 0.168.
As for GCTCTGAA, the “PBM E-score” value was -0.186.
In the case of ATCCGGGA it was 0.0768; in that of ACGGTAAC, 0.21; in that of AAGGTCCC, -0.236.
For CGGCGCTA the value was -0.0937; for ACCAAGGC, -0.175; for CGCAAACG, -0.00322.
Turning to CAAACCGG, the “PBM E-score” value was 0.125.
In the case of GCAGATGA it was 0.00901; in that of CCTATGTA, -0.187.
In the case of GTATAGAC it was 0.0514.
In the case of AGCAGGTA it was -0.103; in that of CGATGAGA, 0.0167; in that of AGGGTAAC, -0.186.
Take CCTGCAAC: the “PBM E-score” value was -0.191.
In the case of ATACAGGC it was 0.00692; in that of ATTAAATA, 0.315; in that of AGATGTAC, -0.0447.
For ATTATCAG the value was -0.0533; for GTCTGTGA, -0.233; for AGTACTGC, -0.161.
On to ATGTGCTG, for which the “PBM E-score” value is -0.0244.
Consider CAAGAAAG, for which the “PBM E-score” value is 0.181.
For CTTGTATA the value was 0.166; for CCACCCCC, -0.226.
For TCTAACAA the value was 0.177; for TCCCGGCA, -0.0887.
In the case of CCAATCAC it was -0.127; in that of AGGAACCA, -0.0989.
For the sequence GGCCCGTA, the “PBM E-score” value is -0.129.
For ACTGAATC the value was -0.114.
For GAGTCGTA the value was 0.0883.
Turning to CCTTTGCG, the “PBM E-score” value is -0.119.
In the case of AATTCTAT it was 0.128; in that of GTTGTGTA, 0.0519.
As to AGGAATCA, the “PBM E-score” value is 0.12.
In the case of AGCCCTGA it was -0.191; in that of CACTTCCC, 0.0121; in that of ATTTTGGA, 0.229.
Regarding AATTGTAT, the “PBM E-score” value was determined as 0.114.
For TGTCAAAA the value was 0.189; for ACAGTGTC, -0.114.
In the case of CTGAAATC it was 0.0241; in that of CTCTAGGA, -0.277; in that of AAAAAAGG, 0.225.
In the case of CTTCACCA it was -0.163.
AGGAAATA: the “PBM E-score” value was found to be 0.184.
In the case of ACACTCAG it was -0.253; in that of CCGGCCGC, -0.0166; in that of CCGTACGA, 0.118.
In the case of AGTCATGC it was -0.253; in that of CCCACGTA, -0.0462.
In the case of CAGGACAA it was 0.183; in that of GAAAATCA, 0.159.
Turning to GATCCGGA, the “PBM E-score” value turned out to be 0.324.
In the case of ATACGGCG it was 0.0563; in that of AATTTCGC, 0.136.
ATAGCATC: the “PBM E-score” value turned out to be 0.0409.
For ATATTTAG the value was 0.166; for GCGGTCGA, 0.0161.
In the case of CGGGTATC it was -0.222; in that of TGGGGCAA, -0.261; in that of AGGAATAC, -3e-05.
For CATAAAGC the value was -0.104.
For GGGTTATA, the “PBM E-score” value turned out to be 0.0268.
For ATACACAG the value was 0.116; for CATTCCAA, -0.035.
For CGCCAGAA the value was -0.038; for AAGCTCCA, -0.0213.
In the case of ACCGGCCC it was -0.177; in that of CTAGAAGA, 0.0578; in that of TTAGGAAA, 0.0746.
Regarding CCAGGCGA, the “PBM E-score” value is -0.308.
As for ATCAGCTG, the “PBM E-score” value was -0.0324.
For GATCGTTA the value was 0.0116; for GATGACGA, -0.0657.
For AGGACACA the value was 0.0491; for CACCAGAA, -0.185.
For TCCTAAAA the value was 0.00189.

(Values after the supplement of paper PMC3334620.)
